{
  "source": "ChEMBL document CHEMBL4888484",
  "about": "“Replenishing the malaria drug discovery pipeline: Screening and hit evaluation of the MMV Hit Generation Library 1 (HGL1) against asexual blood stage Plasmodium falciparum ,using a nano luciferase reporter read-out” (2022)",
  "note": "About 540 (0.36%) of roughly 150,000 compounds showed an effect of 50% or more. This is one part of the list.",
  "data": [
    {"test_system": "Plasmodium falciparum", "test": "Primary screen in NF54 nanoGlo assay, in single point, at 2uM, 72h; a lower Z score goes with more inhibition", "format": "functional, Erythrocyte", "conditions": "timepoint 72 hour", "units": {"% Inhibition": "%"}, "values": [
      {"smiles": "Fc1cccc(OCCN2CCC[C@H](C3OCCO3)C2)c1", "% Inhibition": -3, "Z score": 0.27},
      {"smiles": "CC(=O)N1CCC(CC(=O)NC(C)C)(N2Cc3ccccc3C2=O)CC1", "% Inhibition": -4, "Z score": 0.58},
      {"smiles": "CS(=O)(=O)c1ccc(S(=O)(=O)N2CC[C@H]2c2ccccc2)cc1", "% Inhibition": -12, "Z score": 1.2},
      {"smiles": "Cc1ccnc(NS(=O)(=O)c2ccc(Nc3cc(-c4ccccc4)nc(C)n3)cc2)n1", "% Inhibition": 2, "Z score": -0.27},
      {"smiles": "Cc1cccc(OC2CN([C@@H](C)CCN(C)C)C2)c1", "% Inhibition": -19, "Z score": 2.04},
      {"smiles": "N#Cc1c(-c2cccnc2)cc(-c2c[nH]c3ccccc23)nc1N", "% Inhibition": 3, "Z score": -0.41},
      {"smiles": "CC(C)NCc1ccccc1Br", "% Inhibition": 2, "Z score": -0.26},
      {"smiles": "Cn1nc(C(F)(F)F)cc1NC(=O)NC12CC1COC2(C)C", "note": "(stereo unspecified)", "% Inhibition": 6, "Z score": -0.93},
      {"smiles": "COc1cccc(C2=NS(=O)(=O)N(C)C(C(=O)N3CCC(C(N)=O)CC3)=C2)c1", "% Inhibition": 22, "Z score": -3.71},
      {"smiles": "CN(C(=O)c1ccnn1CC(F)(F)F)C(C)(C)CN1CCCC1", "% Inhibition": -8, "Z score": 1.04},
      {"smiles": "CCCCNC(=O)NCC1([C@@H](O)C(C)C)CC1", "% Inhibition": -16, "Z score": 1.4},
      {"smiles": "CC(C)(C(=O)N1CCC(C(=O)O)CC1)c1ccc2c(c1)OCCO2", "% Inhibition": 0, "Z score": -0.01},
      {"smiles": "COc1cc(OC)c2ncnc(-n3ccnc3)c2c1", "% Inhibition": 5, "Z score": -0.62},
      {"smiles": "Cc1cc(C)nc(NC(=O)N2CCC[C@@H]2CO)c1", "% Inhibition": -7, "Z score": 0.83},
      {"smiles": "CN(Cc1noc2c1CCCC2)S(=O)(=O)c1cccs1", "% Inhibition": -8, "Z score": 1.26},
      {"smiles": "Cc1nc(-c2ccncc2)nc(N2CC(O)C(O)C2)c1C", "note": "(stereo unspecified)", "% Inhibition": -3, "Z score": 0.48},
      {"smiles": "CCC1(CC)NC(=O)N(CC(=O)N2CCN(S(=O)(=O)c3ccc(C)cc3)CC2)C1=O", "% Inhibition": -13, "Z score": 2.07},
      {"smiles": "O=c1ccc(F)cn1CCc1ccc2c(c1)CCO2", "% Inhibition": -12, "Z score": 1.72},
      {"smiles": "O=C1C2CC=CCC2C(=O)N1Cc1ccn(-c2ccc(F)cc2F)n1", "note": "(stereo unspecified)", "% Inhibition": -6, "Z score": 0.78},
      {"smiles": "COc1ccccc1N(CN1CCCC1=O)C(=O)c1cccc(Cl)c1", "% Inhibition": 0, "Z score": 0.07},
      {"smiles": "Cc1nc(NC(=O)c2cc(Cl)c3c(c2)OCCCO3)sc1C", "% Inhibition": -15, "Z score": 2.74},
      {"smiles": "Cc1nnc(CS(=O)(=O)Cc2c(Cl)cccc2Cl)o1", "% Inhibition": -40, "Z score": 4.75},
      {"smiles": "Cc1cc(C)n2ncc(-c3noc(C4CN(C5CCCCC5)C4)n3)c2n1", "% Inhibition": -6, "Z score": 1.22},
      {"smiles": "CCOC(=O)CN(CC(=O)N1CCCCC1CC)C(C)c1ccccc1", "note": "(stereo unspecified)", "% Inhibition": -16, "Z score": 1.79},
      {"smiles": "Cc1nnc(CC(=O)N(C)C2CCOC(c3ccc(F)cc3)C2)o1", "note": "(stereo unspecified)", "% Inhibition": -6, "Z score": 1},
      {"smiles": "Cc1nn(C)c(Cl)c1[C@H]1CC(=O)Nc2c1cnn2Cc1cccnc1", "% Inhibition": 4, "Z score": -0.88},
      {"smiles": "O=C1CNc2ccc(C(=O)NCCCc3cccnc3)cc2N1", "% Inhibition": 6, "Z score": -0.58},
      {"smiles": "COCCc1nsc(Oc2ccc(F)c(C(F)(F)F)c2)n1", "% Inhibition": -11, "Z score": 1.48},
      {"smiles": "COc1ccc(-c2nccn3cc(C(=O)N4CCN(c5ncccn5)CC4)nc23)cc1", "% Inhibition": 1, "Z score": -0.24},
      {"smiles": "Cn1ccc(C(=O)Nc2cccnc2)cc1=O", "% Inhibition": -37, "Z score": 4.35},
      {"smiles": "Cc1ccc(CNCc2cc(C3CCNCC3)no2)s1", "% Inhibition": 0, "Z score": 0.03},
      {"smiles": "O=C(CC1CCCC1)NCCCOCC(F)(F)F", "% Inhibition": -11, "Z score": 1.43},
      {"smiles": "CC(C)(C)OC(=O)N1CC2(C[C@H](NC(=O)Nc3cccnc3)CO2)C1", "% Inhibition": 12, "Z score": -1.51},
      {"smiles": "O=C(CCN1C[C@H]2CC=CC[C@H]2C1)NCc1ccc(F)cc1", "% Inhibition": -14, "Z score": 2.35},
      {"smiles": "Cc1occc1C(=O)NC[C@@H](CO)Cc1ccc(F)c(F)c1", "% Inhibition": -1, "Z score": 0.24},
      {"smiles": "Cn1c(N2CCOC3(CCCC3)C2)nnc1[C@]1(C)CCCO1", "% Inhibition": -4, "Z score": 0.51},
      {"smiles": "Nc1c2c(-c3ccccc3)nc(NCCN3CCCC3)nc2nn1-c1ccc(C(F)(F)F)cc1", "% Inhibition": -5, "Z score": 0.88},
      {"smiles": "Cc1ccc(Cc2ccccc2C(=O)N2C[C@@H]3[C@H](C2)[C@H]3C(=O)O)cc1F", "% Inhibition": -8, "Z score": 1.41},
      {"smiles": "CN1CCC(NC(=O)Cn2c(COc3ccccc3)nc3ccccc32)CC1", "% Inhibition": -3, "Z score": 0.27},
      {"smiles": "CC1(CNC(=O)c2ccccc2NC(=O)C(C)(C)C)CN(Cc2ccccc2)C1", "% Inhibition": -8, "Z score": 1.3},
      {"smiles": "C[C@H]1CN(c2ccccc2)CCN1C(=O)c1cnc(O)cn1", "% Inhibition": -3, "Z score": 0.5},
      {"smiles": "O=C1C2C(C(=O)N1c1ccc(Cl)c(Cl)c1)C1(O[C@H]2c2ccc(Br)cc2)C(=O)c2ccccc2C1=O", "note": "(stereo partly specified)", "% Inhibition": -7, "Z score": 0.86},
      {"smiles": "COc1cc(-c2nccn2-c2ccc(C)nc2)cc(OC)c1OC", "% Inhibition": -1, "Z score": 0.15}
    ]}
  ]
}
